Assay results taken from the supplement of paper PMC3334620.
Over roughly 33,000 sequences, “E-score (-0.5 to 0.5)” has its median near -0.041; the highest 2% begin near 0.37. The list shows a part of the results.

Biological target: T1, Ecm22 (UniProt Q05958)
T1 sequence: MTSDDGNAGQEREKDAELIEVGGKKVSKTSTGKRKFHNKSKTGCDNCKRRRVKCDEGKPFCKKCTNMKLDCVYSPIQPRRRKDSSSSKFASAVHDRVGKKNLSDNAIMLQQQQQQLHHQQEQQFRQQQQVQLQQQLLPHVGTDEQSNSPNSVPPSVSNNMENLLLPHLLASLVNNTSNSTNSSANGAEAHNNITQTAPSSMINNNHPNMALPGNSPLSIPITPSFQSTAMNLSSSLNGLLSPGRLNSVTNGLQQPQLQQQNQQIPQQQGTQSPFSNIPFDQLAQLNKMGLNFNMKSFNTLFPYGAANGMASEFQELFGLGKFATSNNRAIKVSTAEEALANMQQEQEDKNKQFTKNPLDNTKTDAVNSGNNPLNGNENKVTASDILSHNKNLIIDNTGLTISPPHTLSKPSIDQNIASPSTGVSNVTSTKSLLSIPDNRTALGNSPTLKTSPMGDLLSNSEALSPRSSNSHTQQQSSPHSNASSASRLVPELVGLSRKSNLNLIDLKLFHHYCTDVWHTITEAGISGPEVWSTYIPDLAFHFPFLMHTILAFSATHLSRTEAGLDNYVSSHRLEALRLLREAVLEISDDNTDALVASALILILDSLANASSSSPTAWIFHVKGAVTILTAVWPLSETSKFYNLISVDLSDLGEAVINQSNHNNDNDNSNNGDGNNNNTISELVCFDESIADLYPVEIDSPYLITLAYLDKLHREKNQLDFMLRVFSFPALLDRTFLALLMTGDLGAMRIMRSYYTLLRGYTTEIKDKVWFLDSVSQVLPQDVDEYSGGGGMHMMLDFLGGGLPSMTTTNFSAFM
Assay: PBM E-score (8-mer binding enrichment) (E-score (-0.5 to 0.5)); higher = stronger / more preferred TF binding; most listed sequences are background and not binding sites
Settings: protein concentration: 200 nM; construct: GST-full length
Method in brief: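 Full-length yeast transcription factors or their DNA-binding domains, GST-tagged and expressed with PURExpress, were applied at about 100-200 nM to universal all-10-mer Agilent arrays. These arrays had been made double-stranded by primer extension on fresh or once-stripped slides. Detection used fluorescent anti-GST, normalisation used masliner, and E-scores for ungapped eight-base words pooled with reverse complements came from the Universal PBM Analysis Suite.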

Sequence	PBM E-score
CCCATGGG	-0.0959
GTATACTA	0.173
ACCATGGG	-0.239
GCAGGTAC	0.1
ACCCACAG	-0.0711
CAGACGTC	-0.239
CAGAAATC	-0.19
CGCGAATA	0.225
CCGTGAAC	-0.0691
CGATTTTA	0.0853
CAGCGGGA	-0.188
ACGATTTC	0.236
AGATCGAT	-0.201
AGAAAATC	-0.00706
ACACACCG	0.0636
AGTCTCTG	-0.131
ATCAAGTC	-0.00766
ATACGGAC	0.362
AAGAAAAC	0.0702
ATATCGAA	0.0195
ACGATCTC	0.239
AAGGTTCT	-0.155
CCTGGTTC	-0.101
CTATGTCC	-0.25
CCTAGGCA	-0.218

Sequence	PBM E-score
ATGTACTG	-0.091
ACGTTAGC	0.0731
CAGTAAAC	0.195
CTCAGGTA	-0.131
ACGGCTCC	0.126
ATTAATAC	0.0519
ACAACGAC	0.295
GAGGCCTC	0.0714
ATATTAAA	0.159
CGGTACCA	-0.0083
CTTTACGA	0.464
AAAAAGGA	-0.0219
CCTGAAGC	-0.283
TGTTAAAA	-0.0602
ACGCAGGC	-0.00144
TAAGGTGA	-0.0341
AAGTCCTG	-0.321
CGAAGTAG	0.126
CTCGTAAG	0.44
GCATGTAC	0.17
GGTGAGCA	-0.129
CATAGCAA	-0.196
AGGCGGAT	-0.21
GCGGTGGA	0.0731
CCTTACTC	-0.0985

Sequence	PBM E-score
ATTGCGAC	0.179
CACTTCTC	0.0323
CGGCTGAG	-0.121
CTCCCGAG	0.163
CGAGTGCA	0.128
AGCTTATC	-0.056
GGGAACCA	-0.215
GAAAGGCC	-0.122
GGGGACTA	-0.242
CTGGTACA	-0.0942
CAAAACAG	-0.0366
AACTGTTG	-0.219
GATTCCCC	-0.205
GAAGTCGA	-0.104
ATGGTTTG	-0.14
AAGCCGCA	0.0536
ATAGCAGA	-0.147
AGCCAAGC	-0.174
GCTCTCAA	-0.0248
TGCTCCCA	-0.0821
GGGTGCCA	-0.0378
CTAGGTCC	-0.0845
AGCCACCG	-0.0608
GAACACCC	-0.121
GCGACAGA	0.0945

Sequence	PBM E-score
TTGTACAA	-0.0655
AGGTAAAA	-0.0767
CTACAAAA	-0.0702
GCAGCTGA	-0.0826
AATCTTTG	-0.0601
AATTTATC	0.17
AGTAAAGA	-0.225
ACCTGGAC	-0.232
AATCGGAG	-0.0617
CTAGATAC	0.226
CAAGACAA	-0.127
AAAACTAT	-0.0456
ATGGCCCG	-0.0899
AAGGCTCA	-0.26
AAGTTGCC	-0.0243
GCTGACAC	-0.09
ACATCATG	-0.209
AGGGGTCA	-0.179
CATTCGTA	0.407
TACTCTAA	-0.0365
AGCGGGGG	-0.308
CAGGCGAA	-0.0615
AATAGTAA	-0.12
CGGCGAGC	0.175
GCGATAAA	0.154

Sequence	PBM E-score
ACTGGGAG	-0.206
CCTGCAAG	-0.0692
CGAAGACA	0.146
AGGCACTG	-0.151
AGAGCCCT	-0.155
TGACGGAA	0.0325
AACGCGCT	0.0935
CCACTGGC	-0.267
GCAAATTA	0.012
CACGGCTA	-0.118
GCGAGATA	0.273
AACTATCG	0.176
TCGGACCA	0.109
CTATGACC	0.0115
AGGGCTAA	-0.225
ACTAGCTA	-0.00683
ACGAGAGC	0.399
CGATCAAG	-0.12
AGTTACTA	0.0475
GACTAGGA	-0.262
GAGCAACA	-0.138
CTGGCCTA	-0.168
AGTTCTTC	0.049
ACTACACG	0.17
ATCTTTTG	0.122

Sequence	PBM E-score
GCGCTTTA	0.0513
CCTTTCGA	0.142
CGCTTCAA	0.099
GAAAGCAC	0.108
ATGAATCG	0.149
ACACTTAG	-0.14
GCAGTGGA	-0.126
GATTACGA	0.336
AGCGGGAC	-0.137
GACTGCCC	-0.176
GATGGAGC	-0.0438
AAGGCTAA	0.00013
CCCAGATC	-0.128
GTTTGTAA	0.12
ACATTCTG	-0.0862
CAAGAGTC	-0.0935
GCATAACC	-0.00363
ATACCCGG	-0.0336
CAGACAAA	0.0367
CACTGGGG	-0.267
ATGGAAAC	-0.128
CCTGCAGA	-0.0769
GCGTCGTA	0.471
AACCGCCC	-0.0423
CACAATGC	-0.161

Sequence	PBM E-score
CTACACAA	0.151
GGCACCCA	-0.168
CCTCCATA	-0.058
ATAGCCGG	-0.08
CCTAACTA	-0.133
CGCTCCCA	0.0876
CGAGTTAG	0.205
GACAGGGA	-0.0415
AAAGCGTT	-0.0373
CCCGTAGG	-0.158
ACAGGACA	0.0711
CGCACTGA	-0.0509
ACCCGCCG	0.0245
GCTAAGGA	-0.164
AGGCATTG	0.0314
AGTATCGA	-0.00208
ACACCCAA	-0.0552
GGACACTA	-0.118
CGACAGCG	0.171
TACGAATA	0.43
ACCTGTTA	-0.0441
CTCACCGA	0.00921
